Data: paper PMC4336329 (PLoS ONE, 2015)
About 2,200 (0.71%) of roughly 310,000 compounds showed an effect of 50% or more. Effects have a minus sign here. Some of the results follow.

biological target: human ether-à-go-go-related gene (hERG) potassium channel (human, UniProt Q12809); assay: primary screen, population patch clamp on CHO cells stably expressing hERG
Sequence (Q12809 whole entry, looked up): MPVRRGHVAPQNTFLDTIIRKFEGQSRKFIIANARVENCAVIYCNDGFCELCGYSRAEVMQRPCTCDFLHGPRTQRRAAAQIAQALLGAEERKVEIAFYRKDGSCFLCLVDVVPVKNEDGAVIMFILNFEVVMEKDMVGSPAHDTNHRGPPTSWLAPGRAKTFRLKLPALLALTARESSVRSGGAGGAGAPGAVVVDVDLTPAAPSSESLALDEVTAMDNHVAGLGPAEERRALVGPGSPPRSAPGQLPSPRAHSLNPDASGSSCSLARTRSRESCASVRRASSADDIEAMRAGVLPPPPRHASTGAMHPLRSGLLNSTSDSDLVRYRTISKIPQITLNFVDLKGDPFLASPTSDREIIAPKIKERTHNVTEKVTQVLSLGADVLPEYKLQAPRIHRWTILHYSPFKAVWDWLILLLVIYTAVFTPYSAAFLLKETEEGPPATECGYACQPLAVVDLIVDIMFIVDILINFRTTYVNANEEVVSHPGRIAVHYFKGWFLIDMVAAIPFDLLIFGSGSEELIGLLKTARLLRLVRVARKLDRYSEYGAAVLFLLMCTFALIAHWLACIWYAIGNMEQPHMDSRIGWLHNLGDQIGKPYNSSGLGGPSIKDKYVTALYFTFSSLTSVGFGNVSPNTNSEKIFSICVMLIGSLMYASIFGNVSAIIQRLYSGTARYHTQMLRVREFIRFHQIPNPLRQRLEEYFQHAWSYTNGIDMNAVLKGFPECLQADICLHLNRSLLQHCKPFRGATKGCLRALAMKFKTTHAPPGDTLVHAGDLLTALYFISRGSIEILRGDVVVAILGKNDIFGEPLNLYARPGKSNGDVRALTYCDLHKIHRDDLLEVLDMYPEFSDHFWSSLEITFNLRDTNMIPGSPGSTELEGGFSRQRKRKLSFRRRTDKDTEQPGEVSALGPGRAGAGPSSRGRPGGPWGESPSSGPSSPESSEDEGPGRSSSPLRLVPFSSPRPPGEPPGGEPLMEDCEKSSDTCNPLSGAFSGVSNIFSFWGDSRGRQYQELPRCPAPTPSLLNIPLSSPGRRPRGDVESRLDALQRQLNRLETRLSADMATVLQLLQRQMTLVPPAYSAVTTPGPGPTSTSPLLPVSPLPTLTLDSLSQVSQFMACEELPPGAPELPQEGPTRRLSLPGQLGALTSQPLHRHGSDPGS

Row | SMILES | hERG current change (%, negative = inhibition) at 1uM
1 | Cc1nnc(NC(=O)CSc2nnc(Cc3cccn3C)n2CCc2ccccc2)s1 | 3.48%
2 | CC1CCCN(C(=O)C2CCN(S(=O)(=O)c3cccc4nonc34)CC2)C1 (stereo not shown) | 12.6%
3 | Cc1nc(SCc2nc3ccccc3[nH]2)c2oc3ccccc3c2n1 | 14.9%
4 | CC(=O)c1cc(-c2ccc(F)cc2)n(CC(=O)NCc2cccs2)c1C | -4.31%
5 | COc1ccc(NC(=O)CN(C)CC(=O)Nc2ccc(Cl)c(S(=O)(=O)N(C)C)c2)cc1 | 0.0036%
6 | CC1CN(S(=O)(=O)c2ccc(C(=O)Nc3nnc(-c4ccc5c(c4)CCCC5)o3)cc2)CC(C)O1 (stereo not shown) | 9.15%
7 | Cc1nn(CC(=O)N2CCCCC2)c(=O)c2nn(-c3ccccc3)c(C)c12 | 14.2%
8 | O=C(Cc1ccccc1Cl)NCc1cccnc1 | 18.6%
9 | Nc1cc(C(F)(F)F)ccc1C(=O)O | 10.2%
10 | COc1cccc(CN2CCN(C(=O)c3cccc(OC)c3)CC2)c1.O=C(O)C(=O)O | 15.3%
11 | CC(OC(=O)c1ccco1)C(=O)NC1CCCCC1 (stereo not shown) | 9.98%
12 | COc1ccc(S(=O)(=O)NCc2ccncc2)cc1NC(=O)c1ccccc1C | -8.51%
13 | Cc1cccc(C)c1OCc1cc(C(=O)N2CCCC2c2nonc2C)no1 (stereo not shown) | 8.29%
14 | O=C(Nc1ncccc1O)c1ccc2ccccc2c1 | 19.9%
15 | Cc1onc(-c2ccccc2)c1C(=O)N1CCC(C)CC1 | -2.72%
16 | O=Nc1c(O)n(Cc2ccccc2)c2ccccc12 | 12.4%
17 | COc1ccc(C)cc1NC(=O)c1nn(C)c(C(=O)Nc2cc(C)ccc2OC)c1[N+](=O)[O-] | 11.1%
18 | O=C(Nc1ccc(NC(=O)c2ccccc2F)cn1)c1ccco1 | 13.5%
19 | CN(C)Cc1c(C(=O)N/N=C/c2cccc(OCc3ccc(F)cc3)c2)nnn1-c1nonc1N | 14.9%
20 | CCOC(=O)c1c(NC(=O)c2cccnc2)sc(C)c1C | -3.1%
21 | Cc1ccc(CNC(=O)c2ccc([N+](=O)[O-])o2)cc1 | 8.8%
22 | Nc1ccc(C(=O)Nc2nccs2)cc1 | 16.1%
23 | CCOc1ccc(OCC)c(NC(=O)CN2CCN(C(=O)c3ccco3)CC2)c1 | -5.94%

Row | SMILES | hERG current change (%, negative = inhibition) at 1uM
24 | OCCC1CN(Cc2ccon2)CCN1Cc1ccccc1 (stereo not shown) | 9.72%
25 | Cc1ccsc1C(=O)OCC(=O)Nc1cccc(S(=O)(=O)N2CCOCC2)c1 | 0.283%
26 | O=C(CSc1ccccc1)NCCCN1CCOCC1 | 8.44%
27 | CCOC(=O)c1ccc(NC(=O)c2nc[nH]c2C(=O)NC)cc1 | 12.7%
28 | O=C(CSCc1c(F)cccc1Cl)NCC1CCCO1 (stereo not shown) | -1.83%
29 | CCC(C)(C)NC(=O)COc1ccc(OCc2ccccc2)cc1 | 9.73%
30 | Cn1c(=O)c(C=Nc2ccccc2)c(O)c2ccccc21 | 12.5%
31 | CSc1nc(C)cc(NC(N)=O)n1 | 11.1%
32 | CCC(=O)N1c2ccc(S(=O)(=O)CCC(=O)N3CCN(c4ccccc4)CC3)cc2CC1C (stereo not shown) | 16%
33 | C=CCSc1nc(N)c(NC(=O)c2ccco2)c(=O)[nH]1 | 9.39%
34 | CC1CCCC(C)N1C(=O)COC(=O)C1CCN(S(=O)(=O)c2ccc3c(c2)OCCO3)CC1 (stereo not shown) | 7.49%
35 | COc1ccc(C(CC(=O)Nc2nccs2)C(C)C)cc1 (stereo not shown) | 10.9%
36 | CC(C)CC(=O)Nc1cc(NC(=O)CC(C)C)cc(C(=O)NC(C)(C)C)c1 | 13%
37 | CN(C)C(=O)c1ccc(NC(=O)c2ccccc2Sc2ccccc2C#N)cc1 | 13.4%
38 | COc1cc(-c2nc(S(=O)(=O)c3ccc(Cl)cc3)c(N3CCOCC3)o2)cc(OC)c1OC | 11.7%
39 | COc1ccccc1Nc1nnc(SCC(=O)Nc2nc(-c3ccc(F)cc3)cs2)s1 | 18.4%
40 | CCOC(=O)c1cn(Cc2cccc(C)c2)nn1 | 5.49%
41 | CCOC(=O)c1sc(NC(=O)CC(C)c2ccccc2)nc1C (stereo not shown) | 13.4%
42 | CCOc1ccc(N(CC(=O)NCc2ccc(F)cc2)S(=O)(=O)c2c(C)noc2C)cc1 | 0.252%
43 | COc1ccc(OCCNc2c([N+](=O)[O-])c(=O)oc3ccccc23)cc1 | 14.6%
44 | O=C1CS(=O)(=O)N(Cc2cccc(F)c2)c2ccc(Br)cc21 | 16.2%
45 | COC(=O)c1sc(NC(=O)CSc2nncs2)c(C(=O)OC)c1C | 6.2%
46 | Cc1noc(C)c1CSc1nc2[nH]ncc2c(=O)n1-c1ccccc1 | 5.8%

Row | SMILES | hERG current change (%, negative = inhibition) at 1uM
47 | COc1ccccc1-c1nn2c(C(F)(F)F)nnc2s1 | 11.6%
48 | COCOc1cc(O)c2c(=O)c(OCOC)c(-c3ccc(OCOC)c(OCOC)c3)oc2c1 | 2.95%
49 | COc1ccc(OC)c(NC(=O)CCCNC(=O)c2ccc(Cl)cc2)c1 | 4.49%
50 | CCCN1CCC(=O)N([C@H](CSc2ccccc2)CC(C)C)CC1 | -31.8%
51 | Cc1ccc([N+](=O)[O-])cc1N=Cc1ccc(Br)s1 | 0.131%
52 | Cc1ccc(NC2=CC(=O)C(=O)c3ccccc32)cc1 | -0.518%
53 | Cc1cc(/C=C(\C#N)C(=O)NCc2ccco2)c(C)n1-c1cccnc1 | 14.5%
54 | COc1ccc(Cl)c2c1[nH]c1nc(SCc3ccccn3)nnc12 | 23.9%
55 | Cc1cccc(C2N(c3ccc(F)cc3)C(=O)C3CCCN32)c1 (stereo not shown) | -7.7%
56 | c1ccc(NC2=NCCN2CC2CCCCCC2)cc1 | 4.78%
57 | COc1cc(C(=O)NCc2nnc(SCC(=O)Nc3ccc4c(c3)OCO4)o2)cc(OC)c1OC | 20.3%
58 | CCCCOC(=O)c1ccc(NC(=O)c2c(OC)cccc2OC)cc1 | 13.3%
59 | Nc1nonc1-n1nnc(C(=O)N/N=C/c2ccco2)c1CSc1ccccc1 | 11.9%
60 | Cc1nc(S(=O)(=O)c2ccc(Cl)cc2Cl)nc2c1CCC2 | 19.3%
61 | CC(C)CC(=O)NC1(C(F)(F)F)C(=O)N(Cc2ccccc2)C2=C1C(=O)CC(C)(C)C2 (stereo not shown) | -9.68%
62 | Cc1ccc(OCc2nc(-c3cccnc3)no2)cc1C | 6.73%
63 | COc1ccc2nc(C)[nH]c(=O)c2c1 | 9.62%
64 | CCc1ccc(CNC(=O)CCS(=O)(=O)Cc2ccccc2F)cc1 | 9.27%
65 | Cn1cccc1C(C#N)c1ncc(C(F)(F)F)cc1Cl (stereo not shown) | 6.42%
66 | CC(=O)Nc1ccccc1/C=C/c1ccc2c(C)cc(C)c(O)c2n1 | 16.5%
67 | COc1ccc(OC)c(S(=O)(=O)N2CCC3(CC2)OCCN3S(=O)(=O)c2cccs2)c1 | -10.3%
68 | N#Cc1c(NC(=O)c2ccc(N3CCOCC3)c([N+](=O)[O-])c2)sc2c1CCCC2 | 7.03%
69 | CN1CCN(C(=O)CCS(=O)(=O)c2cc3c(cc2Cl)NC(=O)CO3)CC1 | 6.68%

Row | SMILES | hERG current change (%, negative = inhibition) at 1uM
70 | Cc1ccc(NC(=O)CSc2nnc(C)n2C2CC2)cc1S(=O)(=O)N1CCOCC1 | 10.6%
71 | Cc1ccc(CN2CC(C(=O)N3CC=C(c4ccccc4)CC3)CC2=O)cc1 (stereo not shown) | -1.5%
72 | Cc1ccnc(NC2CCCCC2)c1 | 8.45%
73 | CC(=O)NC1CSCC1OC(C)=O (stereo not shown) | 13%
74 | COc1ccc(CCNC(=O)CSc2ccc(-c3ccccc3)nn2)cc1 | -9.1%
75 | COc1ccc(CCn2ccc(O)c(Cc3c(F)cccc3Cl)c2=O)cc1OC | 14.4%
76 | Cc1ccc(C)c(CNS(=O)(=O)c2c(C(=O)N3CCCC3)c(C)n(C)c2C)c1 | -2.09%
77 | CCc1ccc(/C=N/NC(=O)C(=O)NCCCN2CCOCC2)cc1 | -6.93%
78 | Cc1cccc2cn[nH]c12 | 9.85%
79 | O=C(COC(=O)c1cccc(S(=O)(=O)N2CCCCC2)c1)NC1CCCCC1 | 4.97%
80 | CC(=O)Nc1ccc(Nc2ccccc2)cc1 | 10.1%
81 | COc1cccc(C(=O)OCCCN(C)C)c1.Cl | 0.536%
82 | Cc1nc2ccccn2c1/C(O)=C1\C(=O)C(=O)N(CCN(C)C)C1c1cccnc1 (stereo not shown) | -5.95%
83 | COc1ccc(Cl)cc1-n1c(N)c(C(N)=O)sc1=S | 11.6%
84 | COc1ccc(-c2csc(NC(=O)c3ccccc3F)c2C(=O)O)cc1 | 17.8%
85 | Oc1cc2c(cc1CN1CCN(c3ccccc3)CC1)CCC2 | 5.59%
86 | CC(C)(C)C(=O)Nc1cccc(OC(F)(F)C(F)Cl)c1 (stereo not shown) | 5.08%
87 | C/C(N)=C(/C#N)C(=O)COC(=O)c1cccc(C)c1O | 18.4%
88 | COc1ccc(-c2nnc(SCC(=O)c3ccc(O)cc3O)o2)cc1 | 8.51%
89 | CC/C(=N\O)c1ccc(O)c(OC)c1 | 8.83%
90 | COc1ccc(/C=C/C(=O)OCC(=O)Nc2ccc(OC)c(S(=O)(=O)N3CCCCC3)c2)cc1 | 5.81%
91 | CC(C)(C)c1ccc(C2(C)NC(=O)N(CC(=O)NCc3cccs3)C2=O)cc1 (stereo not shown) | 11.1%
